# According to article PMC12820563:
# This is one part of the list. The list includes weakly bound sequences.
# Target: T1, MBP-FoxP3dN (UniProt Q99JB6)
# T1 sequence: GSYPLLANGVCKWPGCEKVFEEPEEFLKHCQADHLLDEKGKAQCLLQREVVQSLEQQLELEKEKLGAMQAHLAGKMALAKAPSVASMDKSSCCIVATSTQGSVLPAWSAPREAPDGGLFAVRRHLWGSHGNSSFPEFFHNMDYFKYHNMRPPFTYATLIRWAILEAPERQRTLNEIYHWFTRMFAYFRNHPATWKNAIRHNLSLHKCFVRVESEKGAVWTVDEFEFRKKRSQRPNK
# Experiment: PD-seq (MBP pull-down with sequencing)
# Details: 20 mM Tris-HCl pH 7.5, 100 mM NaCl, 1.5 mM MgCl2, 0.4 uM protein, 0.1 uM dsDNA library, 30 min, room temperature, amylose pull-down; high values mean tight binding; double strand, one strand shown
row,Sequence,binding signal (RPM ratio (pull-down/input))
1,GATGATTGTTCTCCCAGCTGATGAATTGTGGCACTCGAGTAAACAAATTTTCCTAATCTTTCTGTTCAAGCGCCATCTAC,2.09
2,GATGATTGTTCTCCCAGCTGATGAATTACCGTCCTCGAGTAAACAAATTTTCCTAATCTTTCTGTTCAAGCGCCATCTAC,0.414
3,GATGATTGTTCTCCCAGCTGATGAATTCATATTCTCGAGTAAACAAATTTTCCTAATCTTTCTGTTCAAGCGCCATCTAC,0.783
4,GATGATTGTTCTCCCAGCTGATGAATTGGAACTGTCGAGTAAACAAATTTTCCTAATCTTTCTGTTCAAGCGCCATCTAC,0.287
5,GATGATTGTTCTCCCAGCTGATGAATTTGATCCATCGAGTAAACAAATTTTCCTAATCTTTCTGTTCAAGCGCCATCTAC,0.378
6,GATGATTGTTCTCCCAGCTGATGAATTTCCACGTTCGAGTAAACAAATTTTCCTAATCTTTCTGTTCAAGCGCCATCTAC,0.311
7,GATGATTGTTCTCCCAGCTGATGAATTGGCCAACTCGAGTAAACAAATTTTCCTAATCTTTCTGTTCAAGCGCCATCTAC,0.293
8,GATGATTGTTCTCCCAGCTGATGAATTAGTTGGGTCGAGTAAACAAATTTTCCTAATCTTTCTGTTCAAGCGCCATCTAC,4.35
9,GATGATTGTTCTCCCAGCTGATGAATTGCTTCCCTCGAGTAAACAAATTTTCCTAATCTTTCTGTTCAAGCGCCATCTAC,0.536
10,GATGATTGTTCTCCCAGCTGATGAATTACGGGCATCGAGTAAACAAATTTTCCTAATCTTTCTGTTCAAGCGCCATCTAC,0.864
11,GATGATTGTTCTCCCAGCTGATGAATTGCCACGGTCGAGTAAACAAATTTTCCTAATCTTTCTGTTCAAGCGCCATCTAC,0.641
12,GATGATTGTTCTCCCAGCTGATGAATTAGACGTTTCGAGTAAACAAATTTTCCTAATCTTTCTGTTCAAGCGCCATCTAC,0.64
13,GATGATTGTTCTCCCAGCTGATGAATTATCAGTGTCGAGTAAACAAATTTTCCTAATCTTTCTGTTCAAGCGCCATCTAC,0.455
14,GATGATTGTTCTCCCAGCTGATGAATTCATGCAGTCGAGTAAACAAATTTTCCTAATCTTTCTGTTCAAGCGCCATCTAC,0.842
15,GATGATTGTTCTCCCAGCTGATGAATTAGAGGAATCGAGTAAACAAATTTTCCTAATCTTTCTGTTCAAGCGCCATCTAC,0.196
16,GATGATTGTTCTCCCAGCTGATGAATTAGGACCGTCGAGTAAACAAATTTTCCTAATCTTTCTGTTCAAGCGCCATCTAC,0.34
17,GATGATTGTTCTCCCAGCTGATGAATTGACCCCATCGAGTAAACAAATTTTCCTAATCTTTCTGTTCAAGCGCCATCTAC,0.381
18,GATGATTGTTCTCCCAGCTGATGAATTAGGATAGTCGAGTAAACAAATTTTCCTAATCTTTCTGTTCAAGCGCCATCTAC,0.432
19,GATGATTGTTCTCCCAGCTGATGAATTTAACATCTCGAGTAAACAAATTTTCCTAATCTTTCTGTTCAAGCGCCATCTAC,1.3
20,GATGATTGTTCTCCCAGCTGATGAATTGCAACACTCGAGTAAACAAATTTTCCTAATCTTTCTGTTCAAGCGCCATCTAC,3.16

row,Sequence,binding signal (RPM ratio (pull-down/input))
1,GATGATTGTTCTCCCAGCTGATGAATTAATGTACTCGAGTAAACAAATTTTCCTAATCTTTCTGTTCAAGCGCCATCTAC,2.12
2,GATGATTGTTCTCCCAGCTGATGAATTTGCGAACTCGAGTAAACAAATTTTCCTAATCTTTCTGTTCAAGCGCCATCTAC,0.377
3,GATGATTGTTCTCCCAGCTGATGAATTCTTGACTTCGAGTAAACAAATTTTCCTAATCTTTCTGTTCAAGCGCCATCTAC,0.38
4,GATGATTGTTCTCCCAGCTGATGAATTCTCTGAATCGAGTAAACAAATTTTCCTAATCTTTCTGTTCAAGCGCCATCTAC,0.169
5,GATGATTGTTCTCCCAGCTGATGAATTCAAGGCTTCGAGTAAACAAATTTTCCTAATCTTTCTGTTCAAGCGCCATCTAC,0.339
6,GATGATTGTTCTCCCAGCTGATGAATTAGGAGTATCGAGTAAACAAATTTTCCTAATCTTTCTGTTCAAGCGCCATCTAC,0.632
7,GATGATTGTTCTCCCAGCTGATGAATTTCGGACTTCGAGTAAACAAATTTTCCTAATCTTTCTGTTCAAGCGCCATCTAC,0.39
8,GATGATTGTTCTCCCAGCTGATGAATTAAGTAGCTCGAGTAAACAAATTTTCCTAATCTTTCTGTTCAAGCGCCATCTAC,0.874
9,GATGATTGTTCTCCCAGCTGATGAATTCCAATATTCGAGTAAACAAATTTTCCTAATCTTTCTGTTCAAGCGCCATCTAC,0.625
10,GATGATTGTTCTCCCAGCTGATGAATTTTCAGAGTCGAGTAAACAAATTTTCCTAATCTTTCTGTTCAAGCGCCATCTAC,0.21
11,GATGATTGTTCTCCCAGCTGATGAATTGCTAGAATCGAGTAAACAAATTTTCCTAATCTTTCTGTTCAAGCGCCATCTAC,0.451
12,GATGATTGTTCTCCCAGCTGATGAATTGCTCGGATCGAGTAAACAAATTTTCCTAATCTTTCTGTTCAAGCGCCATCTAC,0.318
13,GATGATTGTTCTCCCAGCTGATGAATTGCTAACTTCGAGTAAACAAATTTTCCTAATCTTTCTGTTCAAGCGCCATCTAC,0.723
14,GATGATTGTTCTCCCAGCTGATGAATTCACTTCATCGAGTAAACAAATTTTCCTAATCTTTCTGTTCAAGCGCCATCTAC,0.388
15,GATGATTGTTCTCCCAGCTGATGAATTTTCGTCATCGAGTAAACAAATTTTCCTAATCTTTCTGTTCAAGCGCCATCTAC,0.544
16,GATGATTGTTCTCCCAGCTGATGAATTTTTCTGCTCGAGTAAACAAATTTTCCTAATCTTTCTGTTCAAGCGCCATCTAC,0.215
17,GATGATTGTTCTCCCAGCTGATGAATTACTCGTTTCGAGTAAACAAATTTTCCTAATCTTTCTGTTCAAGCGCCATCTAC,0.339
18,GATGATTGTTCTCCCAGCTGATGAATTTCCAATGTCGAGTAAACAAATTTTCCTAATCTTTCTGTTCAAGCGCCATCTAC,0.267
19,GATGATTGTTCTCCCAGCTGATGAATTAAGAACTTCGAGTAAACAAATTTTCCTAATCTTTCTGTTCAAGCGCCATCTAC,0.226
20,GATGATTGTTCTCCCAGCTGATGAATTACCAGCATCGAGTAAACAAATTTTCCTAATCTTTCTGTTCAAGCGCCATCTAC,0.789
